The source of these data is patent US9789203B2, “cKIT antibody drug conjugates” (Novartis AG, priority 2013, dated 2017).

Assay [1] deals with MO7e cells grown in GM-CSF. Nature of the assay: Mo7e SCF-independent proliferation (GM-CSF). It counts as cell-based, human. The settings on record: GM-CSF rather than SCF, 5 days, FIG. 16. On the procedure:
To evaluate the potential antagonistic properties of the naked antibodies and the ability of the antibody drug conjugates (ADCs) to inhibit the proliferation of a cKIT-expressing cell line, MO7e (DSMZ, Catalog # ACC-104, Braunschweig, Del.) were grown in the presence or absence of cKIT ligand, Stem Cell Factor (SCF), for survival. MO7e cells were grown in either 10 ng/ml human granulocyte-macrophage colony-stimulating factor GM-CSF (R&D Systems Cat#215-GM, Minneapolis, Minn.) or 10 ng/ml human Stem Cell Factor SCF (R&D Systems Cat#255-SC) prior to seeding in 96 well plates (Costar Cat #3904, Corning, Tewksbury, Mass.) at 5000 cells/well in 100 μl dilution medium. A duplicate plate was generated for a day 0 measurement and all plates were incubated in a tissue culture incubator at 37° C. with 5% CO2 overnight. […] Assay plates were shaken gently for 20 min and the resulting luminescence intensity was measured using a Perkin Elmer 1450 Microbeta TriLux® plate reader (Perkin Elmer, Waltham, Mass.). […] Following this incubation period, relative cell viability was determined via the addition of Cell titer Glo reagent as described above. The effect of the ADCs on cell proliferation was calculated using the average of the duplicates as follows: (% Inhibition=(ADC or Ab treated)/(untreated)*100) The % inhibition data was fitted to a 4-parameter logistic equation and IC50 values were determined.

Assay [2] has as its system NCI-H1048 small cell lung cancer xenograft. Nature of the assay: In vivo efficacy, NCI-H1048 small cell lung cancer xenograft. The arrangement: species or system mice. The procedure:
All treated groups received a single intravenous dose of 2 mg/kg.

Assay [3] has as its system wildtype cKIT cell line NCI-H526. Nature of the assay: cKIT degradation time course, Western blot. It is filed as cell-based, human. The procedure:
5×10^6 of GIST-T1 (kindly provided by Dr. Takahiro Taguchi, Kochi U., Japan) or NCI-H526 (ATCC CRL-5811) cells were seeded in growth media (DMEM, 10% FBS for GIST T-1 and RPMI, 10% FBS for NCI-H526) the night before at 37° C. with 5% CO2. Cells were then treated with 100 mM cycloheximide (CHX) (Cat#090M4009, Sigma-Aldrich, St. Louis, Mo.) in methionine free medium (GIBCO: DMEM, 21013-024; RPMI, A14517-01, Life Technologies, Carlsbad, Calif.). […] Cells were harvested at 1 hour, 4 hour, and 6 hour post treatment in 1 ml PBS. […] Lysates were then spun down for 40 mins at 12,000 rpm at 4 C. Five μg of each sample was boiled for 10 min at 75° C. and loaded on a 15-well NuPAGE® 4-12% Bis-Tris gel (NP0323BOX Life Technologies, Carlsbad, Calif.). After protein transfer to membrane blots, membranes were blocked in TBST-5% milk at room temperature for 1 hour and then probed with anti cKIT antibody (Cell Signaling Technology Cat#3074, Beverly, Mass.) overnight at 4° C. Blots were washed in TBST (4×5 mins) the next day. The blot was incubated in the secondary antibody (goat-anti rabbit-HRP 1:30,000, Santa Cruz Biotechnologies, Dallas, Tex.) for 1 hour at room temperature. The blot was washed in TBST (4×5 mins) and developed. The primary antibodies used for Western blotting were anti-cKIT (Cell Signaling Technology Cat#3074) and GAPDH (Cell Signaling Technology Cat#3683). […]

Assay [4] has as its system cKIT in wild type cell line Mo7e and mutant cell line GIST T-1. Nature of the assay: Agonist evaluation, Western blot of cKIT phosphorylation and downstream signaling. It counts as cell-based, human. The settings on record: 5 μg/ml, 15 minutes, FIG. 12. On the procedure:
One well was designated as untreated (UT). Cells were harvested in 1 ml PBS. […] Lysates were then spun down for 40 mins at 12,000 rpm at 4° C. […] After protein transfer to membrane blots, membranes were blocked in TBST-5% milk at room temperature for 1 hour and then probed with primary antibodies overnight at 4° C. Blots were washed in TBST (4×5 mins) on the next day. Blots were incubated in the secondary antibody (goat-anti rabbit-HRP 1:30,000, Santa Cruz) for 1 hr at room temperature. Blots were washed in TBST (4×5 mins) and developed.

Where [5] appears, read: NCI-H1048, single i.v. dose 2 mg/kg.

B1: NEG085 (antibody)
heavy: EVQLVESGGGLVQPGGSLRLSCAASGFAFSGYYMAWVRQAPGKGLEWVANINYPGSSTYYLDSVKGRFTISRDNAKNSLYLQMNSLRAEDTAVYYCARGDYYGTTYWYFDVWGQGTTVTVSSASTKGPSVFPLAPSSKSTSGGTAALGCLVKDYFPEPVTVSWNSGALTSGVHTFPAVLQSSGLYSLSSVVTVPSSSLGTQTYICNVNHKPSNTKVDKRV[human IgG1 Fc omitted here]
light: DIQMTQSPSSLSASVGDRVTITCRASQSISSYLNWYQQKPGKAPKLLIYYTSRLQSGVPSRFSGSGSGTDFTLTISSLQPEDFATYYCQQGRRLWSFGGGTKVEIKRTVAAPSVFIFPPSDEQLKSGTASVVCLLNNFYPREAKVQWKVDNALQSGNSQESVTEQDSKDSTYSLSSTLTLSKADYEKHKVYACEVTHQGLSSPVTKSFNRGEC
B1: the “effect on cell proliferation” value in assay [1] was “no detrimental effect on cell proliferation”.

B2: NEG085-MCC-DM1 (conjugate)
heavy: B1 heavy
light: B1 light
Regarding B2, the “antitumor activity (tumor volume)” value in assay [2] (setting [5]) is “not statistically different from the vehicle”; in assay [2] (NCI-H1048, single i.v. dose 5 mg/kg) it was “significantly efficacious”; in assay [2] (NCI-H1048, single i.v. dose 10 mg/kg) it was “significantly efficacious”. The molecule further registered a ΔT/ΔC in assay [2] (setting [5]) of 9%. Moreover, the “blocking of the cKIT receptor from binding SCF” value in assay [3] (ADC plus rh-SCF, FIG. 14B) was “does not block the cKIT receptor from binding SCF”. The cKIT receptor degradation entry in assay [3] (NCI-H526, 5 μg/ml ADC, cycloheximide, 1, 4, 6 hours) is on record as “rapid with levels becoming very low/undetectable after 6 hours”.

B3: 20376 (antibody)
heavy: QVQLVQSGAEVKKPGSSVKVSCKASGGTFSSYAISWVRQAPGQGLEWMGGIIPMSGRTTYAQKFQGRVTITADESTSTAYMELSSLRSEDTAVYYCARDYGPEAPDYGQSTSYFWYYAFDPWGQGTLVTVSSASTKGPSVFPLAPSSKSTSGGTAALGCLVKDYFPEPVTVSWNSGALTSGVHTFPAVLQSSGLYSLSSVVTVPSSSLGTQTYICNVNHKPSNTKVDKRV[human IgG1 Fc omitted here]
light: DIELTQPPSVSVSPGQTASITCSGDNIPSYFVHWYQQKPGQAPVLVIYDDNDRPSGIPERFSGSNSGNTATLTISGTQAEDEADYYCSSWDQDTVVFGGGTKLTVLGQPKAAPSVTLFPPSSEELQANKATLVCLISDFYPGAVTVAWKADSSPVKAGVETTTPSKQSNNKYAASSYLSLTPEQWKSHRSYSCQVTHEGSTVEKTVAPTECS
With B3, in assay [4], the “downstream signaling (phospho ERK, phospho AKT)” value is recorded as “downstream signaling pathways are not affected”. The “phosphorylation of cKIT” value in assay [4] (absence of SCF) is “can mediate phosphorylation of cKIT in the absence of ligand (SCF)”.
